85 compounds from PubChem BioAssay (NCI) can be followed below.

The assay has as its system NCI-H322M lung. The assay can be described thus: NCI-60 cell line screen, 48 h.

Values joined by “and” are separate entries in the source; they are usually repeats but may differ in a detail not shown here. Equal values may be shown once.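 Growth conditions: 96-well plates. Treatment: test compound, 48 hours, 5 concentrations. Analysis: linear interpolation between bracketing concentrations; unreached endpoints set to highest concentration. The concentration for 50% growth inhibition is given as GI50. TGI: concentration producing complete growth inhibition.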 Peptide text beside a SMILES is read from it. * marks the point of attachment. Palmitoyl = CCCCCCCCCCCCCCCC(=O)* A value given as a limit tells only on which side of the number the result lay.

`O=C1C(Cl)C2(CC(/C=C/c3ccccc3)=NN2c2cccc(S(=O)(=O)O)c2)N1c1nc2ccccc2s1` (stereo not drawn) came in with a TGI of more than 100 µM.

Regarding `C/C=C/C#CC#C/C=C/C=C/C(O)CCO` (stereo not drawn), the TGI is more than 23.1 µM. For the compound `C/C(=C\CBr)CCC(Br)C(C)(C)Cl` (stereo not drawn), the TGI is more than 100 µM. The compound `CC(=O)C1=CN=C2C(=O)N(c3ccccc3)N(C)C12C` (stereo not drawn) had a TGI of more than 100 µM. `O=C1OC(C(O)CO)C(O)=C1O` (stereo not drawn): the GI50 was 3760 µM and > 5940 µM; the TGI is more than 10000 µM. Compound `CC(C)=CC(=O)N(C)C1C2CN3CCC(O2)C13` (stereo not drawn) yielded a TGI of more than 100 µM. As for `O=[N+]([O-])c1ccc(C(=S)Nc2ccccc2)o1`, the TGI is 13.3 µM. As for `CC1=NC(=Cc2ccccc2O)C(=O)N1n1c(-c2ccccc2)nc2ccccc2c1=O`, the TGI was more than 100 µM. As for `COc1ccc(N(CC(=O)NCCC[Te]c2ccccc2)C(=O)CNC(=O)OC(C)(C)C)cc1`, the GI50 was 2.28 µM and the TGI came to 6.56 µM. Regarding `O=C(CCCCCCN1CC(=O)N2[C@@H](c3ccc(Cl)c(Cl)c3)c3[nH]c4ccccc4c3C[C@H]2C1=O)NO`, the GI50 is 4.88 µM and the TGI was determined as 19.2 µM. `CC1=C(O)C2=C(C(=O)C1=O)[C@@H](C)CC[C@@H]2[C@@H](C)C/C=C/C(C)(C)O` had a TGI of 83.7 µM.

`NC(=O)C(=CNC(=S)Nc1ccccc1)C(N)=O` returned a TGI of more than 100 µM. Still for that read-out and setting: in the case of `CC12CCC(=O)N1c1ccc([N+](=O)[O-])cc1N2` (stereo not drawn) it was more than 100 µM; in that of `Cc1nc(C(=O)O)c2ccccc2n1`, more than 100 µM; in that of `CC1(c2ccccc2Cl)C(C#N)C(=O)NC(=O)C1C#N` (stereo not drawn), more than 100 µM.

Regarding `O=C(CCC1C(=O)NC(=S)NC1=O)c1ccc2ccccc2c1`, the TGI is more than 100 µM.

Consider `CCOC(=O)/C=C/CCO[Si](C)(C)C(C)(C)C`, for which the TGI is more than 100 µM. For `CC(C)(Br)C(=O)C(Br)Br`, the GI50 is 48.8 µM; the TGI is 30.9 µM and 90.3 µM.

As to `CC(C)(C)C1=CC(C)(n2[nH]c(=O)n(-c3ccccc3)c2=O)C=C(C(C)(C)C)C1=O`, the TGI is more than 100 µM. Compound `CN1C(c2ccccc2)CC(=O)C(N)C1c1ccccc1` (stereo not drawn) returned a TGI of more than 100 µM. As to `O=C(O)c1cccc(C(=O)O)c1S(=O)Cc1ccccc1` (stereo not drawn), the TGI was more than 100 µM. Regarding `N[C@H](C(=O)O)[C@@H]1CC(Br)=NO1`, the TGI was more than 100 µM. Take `CCOP1(=O)C=C(C)C(Cl)=C(C)C1` (stereo not drawn): the TGI is more than 100 µM. `CCOC(=O)N1N=C(/C(C)=N/OC)C(C)S1=O` (stereo not drawn) gave a TGI of more than 100 µM.

`NS(=O)(=O)c1ccc(-c2cc3ccncc3cc2OCc2ccccc2)cc1`: the GI50 was more than 25 µM and the TGI was more than 25 µM.

On to `COc1ccc(/C(Br)=C2\OC(=O)c3ccccc32)cc1`, for which the TGI is more than 10 µM. `O=C(NC1CCN(Cc2ccccc2)CC1)c1ccc(I)cc1` displayed a TGI of more than 100 µM. Turning to `Cc1cc(N=Nc2ccccc2C)ccc1N`, the GI50 is 16.7 µM; the TGI was > 100 µM and 59.4 µM.

In turn, `CC1(C)OC(=S)N(c2ccccc2)C12C=Cc1ccccc1O2` (stereo not drawn) returned a TGI of more than 100 µM. The compound `CCCCC1(C)C=C/C(=C2/C(=O)O/C(=C\C(=O)O)C2=O)O1` (stereo not drawn) registered a TGI of more than 100 µM. Compound `OCCN(CCO)c1ncnc2nc[nH]c12` had a TGI of more than 100 µM.

Compound `C=C(C)C1Cc2c(c3ccccc3n(C)c2=O)O1` (stereo not drawn) had a TGI of more than 100 µM.

For the compound `O=c1[nH]cc(F)c(=O)n1C1OC(CO)C(O)C1O` (stereo not drawn), the TGI was more than 100 µM. `O=C1Cc2c([nH]c3ccc(Br)cc23)-c2cc(O)c(O)cc2N1` yielded a TGI of more than 100 µM. Turning to `CCC1OC2C(CC=C(C)C)=C3OC(C)(O)C(C)(CC)C(OC(C)=O)C3=C3OC(=O)C=C1C32` (stereo not drawn), the TGI is more than 100 µM. Compound `Cc1ccc(/C(C#N)=C/c2cccc([N+](=O)[O-])c2)cc1` registered a TGI of more than 100 µM. `O=S(=O)(/C=C/C(=C/c1ccccc1)S(=O)(=O)c1ccccc1)c1ccccc1` had a TGI of 3.51 µM. Same read-out and setting: for `CC(=O)NC1C(OCc2ccccc2)OC(CO)C(O)C1OC(C)C(=O)NC(C)C(=O)NC(CCC(=O)NCCCCNc1c2ccccc2nc2cccc([N+](=O)[O-])c12)C(N)=O` (stereo not drawn) the value was 0.57 µM; for `[O-]c1c2cc(-[n+]3c(-c4ccccc4)cc(-c4ccccc4)cc3-c3ccccc3)cc1COCCOCCOCCOCCOC2`, more than 100 µM. As to `CCCCCCCCCCCCCCCC(=O)N1CCCC1C(=O)NCC(=O)NC(Cc1ccccc1)C(=O)NC(C)C(=O)NC(CO)C(=O)NC(Cc1ccc(O)cc1)C(=O)NC(CCCCN)C(=O)NC(CC(C)C)C(=O)NC(CCCN=C(N)N)C(=O)N1CCCC1C(=O)NCC(N)=O` (stereo not drawn) (Palmitoyl-PGFASYKLRPG-NH2; configuration not given here), the GI50 was 16.8 µM and the TGI was 46.1 µM. The compound `COC(=O)C1=C(OC(=O)/C(=C/c2ccc(Cl)cc2)c2ccc(Cl)cc2)C(C(=O)OC)[C@]2(O)[C@@H](C(=O)OC)[C@H]1C[C@@H](c1ccccc1)[C@@H]2C(=O)OC` (stereo partly drawn) displayed a TGI of more than 100 µM.

Compound `Nc1nc(Nc2ccccc2)c2[nH]cnc2n1` gave a TGI of more than 100 µM. Regarding `CCOC(=O)NNC(=O)NCc1cccc(CNC(=O)NNC(=O)OCC)c1`, the TGI is more than 100 µM. Regarding `CCN(CC)CCCCCCNc1cc(OC)cc2cccnc12`, the GI50 was 2.33 µM and the TGI was determined as 5.39 µM. Take `CC(=O)OCC(=O)O[C@@H]1[C@H]2[C@@H](OC(=O)c3ccccc3)[C@@H](C)C[C@]2(O)[C@H](OC(C)=O)[C@@]2(C)C(OC(C)=O)[C@]1(OC(C)=O)C[C@H]1C(=O)C(C)(C)C[C@@H]12` (stereo partly drawn): the TGI is more than 50 µM.

`CCCCCCCCCCCCC(Br)C(=O)NCC(N)=O` (stereo not drawn) came in with a TGI of 28.5 µM.

`Cc1ccc2nc(N/N=C/c3sccc3C)cc(C)c2c1` showed a TGI of more than 100 µM. `C#CCNC(=O)[C@H](CC)[C@H]1CC[C@H](C)[C@H]([C@@H](C)[C@H](O)[C@H](C)C(=O)[C@H](CC)C2O[C@]3(C=CC(=O)[C@]4(CC[C@@](C)([C@H]5CC[C@](O)(CC)[C@H](C)O5)O4)O3)[C@H](C)C[C@@H]2C)O1` (stereo partly drawn): the GI50 is 3.44 µM and the TGI was more than 100 µM. The corresponding values for `COc1ccc(-c2nc(/C=C3\SC(=NCc4ccccc4)NC3=O)c3ccccn23)cc1` are 1.42 µM and 3.81 µM. The compound `C[N+]12C=CC=C1C(N1CCCC1)c1scc(-c3ccccc3)c12` (stereo not drawn) had a TGI of more than 100 µM. Consider `Cc1cc[n+]2c(c1)-c1cc(C)cc[n+]1CC2`, for which the TGI was more than 100 µM. The same measure, in the same setting: for `Nc1nc(O)c2ncn([C@H]3CC[C@@H](CO)O3)c2n1` the value was more than 100 µM. `C=CCN1CC(=O)N2[C@@H](Cc3ccc(O)cc3F)C(=O)N(Cc3cccc(N4CC(N5CCN(CC)CC5)C4)n3)C[C@@H]2N1C(=O)NCc1ccccc1`: the GI50 is 0.0933 µM and the TGI is more than 100 µM. With `CC1(C)CC(=O)C2=C(C1)OC(N)=C(c1nc(-c3ccccc3)cs1)C2c1ccc(Br)cc1` (stereo not drawn), the GI50 is more than 150 µg/mL and the TGI is more than 150 µg/mL. In the case of `COC(=O)CCCCC(=O)c1c(C)[nH]c(/C=C2\N=C(c3ccc[nH]3)C=C2OC)c1C`, the GI50 was 3.23 µM and the TGI came to 12 µM. `O=C(/C=C/c1ccccc1)Oc1ccc(C(=O)/C=C/c2ccc(Cl)cc2)cc1` had a TGI of more than 100 µM. On to `Clc1cc(Cl)cc(N=C/C=C/Nc2cc(Cl)cc(Cl)c2)c1`, for which the TGI stood at 64.9 µM. On the same count and under the same terms, in the case of `CCOC(=O)C(C(=O)OCC)=C1NC2(c3ccccc3Nc3ccccc32)C(C#N)S1` (stereo not drawn) it was 39.6 µM. For `O=[N+]([O-])c1ccc(N2CCOCC2)c2c1no[n+]2[O-]`, the GI50 is 5.17 µM and the TGI came to 18.3 µM. Consider `O=C(N/N=C/c1ccc([N+](=O)[O-])cc1)Nc1ccc(C(=O)O)cc1`, for which the TGI was more than 100 µM. In turn, `CCOC(=O)c1c(C)n(-c2ccc(Cl)cc2)c2c1cc(O)c1[nH]c3c(c12)CCCC3` registered a TGI of more than 100 µM. In turn, `NC(=O)NNC(=O)NC12CC3CC(CC(C3)C1)C2` had a TGI of more than 100 µM.

The compound `COc1ccc(/C=C2\CCC(C)(CN(C)C)C2=O)cc1OC` (stereo not drawn) registered a TGI of more than 100 µM.

`COC(=O)c1c(C)n([O-])c2cc(Cl)c(Cl)cc2[n+]1=O` displayed a TGI of 59.7 µM. Still for that read-out and setting: in the case of `CCCCc1ccc(-n2sc3ncc(C)cc3c2=O)cc1` it was more than 100 µM. Consider `O=[N+]([O-])c1ccc(OC2CC3C4C=CC3C2C4)c([N+](=O)[O-])c1` (stereo not drawn), for which the GI50 was 83.4 µM and 30.7 µM; the TGI was more than 100 µM.

In the case of `COCOCC/C=C/C=O`, the TGI is more than 100 µM. Compound `COC(=O)c1ccc2c(c1)S/C(=C/c1ccc3ccc4cccc5ccc1c3c45)S2` had a TGI of more than 100 µM.

For `CCOC(=O)C(=CNc1ccc(NC2=NCC(C)S2)cc1)C(=O)OCC` (stereo not drawn), the TGI was more than 100 µM. The compound `CC1(C)CC(=O)C(/C(=N/NC(=S)NN)C(=O)Nc2nc3ccc([N+](=O)[O-])cc3s2)C(=O)C1` yielded a TGI of more than 100 µM. Take `CC(=O)Oc1ccc(/C=C/C(=O)OCCCOC(=O)/C=C/c2ccc(OC(C)=O)c(OC(C)=O)c2)cc1OC(C)=O`: the TGI was more than 100 µM. Regarding `c1ccc(-c2nc(N3CCNCC3)c3oc(-c4ccccc4)nc3n2)cc1`, the GI50 was 1.65 µM and the TGI was found to be 3.01 µM. Take `Cc1cc(N(CCC#N)CCC#N)ccc1/C(N=Nc1cccc(Cl)c1)=N/NC(=O)c1cc(Cl)ccc1O`: the TGI turned out to be 54.1 µM. `CCCC1CCC(=C2C(=O)CCC2=O)O1` (stereo not drawn) gave a TGI of more than 100 µM. Take `Cn1cc(C2=C(c3cccc(OC[C@@H](O)CO)c3)C(=O)NC2=O)c2ccccc21`: the GI50 is more than 25 µM and the TGI was more than 25 µM. The compound `CSC(=S)Nc1cccc(C)n1` gave a TGI of more than 100 µM.

Compound `CC1(C)CC[C@]2(C)CC[C@]3(C)C(=CC[C@@H]4[C@@]5(C)CCC(=O)C(C)(C)[C@@H]5[C@H](O)C[C@]43C)[C@@H]2C1` returned a TGI of 31.5 µM. `COC1C(N)C(OC2C(Oc3cccc4c(O)c5c(=O)oc6ccc(C)c7c(=O)oc(c34)c5c67)OC(C)C(O)C2(C)O)OC(C)C1O` (stereo not drawn): the TGI amounted to 1.93 µM. The same measure, in the same setting: in the case of `C[N+](C)(C)CC1CCCC1=O` (stereo not drawn) it was 31 µM. Take `COc1ccc2c(c1)c1c(n2CCN(C)C)-c2ccccc2CC1`: the TGI is 29.9 µM. The same measure, in the same setting: in the case of `COc1cc2c(c(O)c1OC)C(=O)[C@@H]1CCC(=O)N1C2` it was more than 100 µM; in that of `Nc1[nH]c(=O)nc2c1cnn2C1CCCCO1` (stereo not drawn), more than 100 µM.

Consider `Cc1cccc2c3c(sc12)C(c1ccc(Cl)cc1)C(C#N)=C(N)O3` (stereo not drawn), for which the GI50 was 0.696 µM and the TGI turned out to be 23.8 µM. For `O=C(O)/C=C/c1nc2ccccc2c(=O)o1`, the TGI was more than 100 µM. The compound `O=[N+]([O-])/C(C(Cl)=C(Cl)Cl)=C(/Cl)SCc1ccccc1` yielded a TGI of 35.9 µM.
